Test results reported in PubChem BioAssay AID463173 (ICCB-Longwood Screening Facility, Harvard Medical School, 2010).
The campaign covered roughly 52,000 compounds. About 1,700 (3.3%) were called active. Rule as the data show it: active = survival mostly below about 52% (no sharp cut-off); inactive = mostly above about 56%. The list shows a part of the results.

The compounds below were run on Wild type (assay: S. aureus survival, RN4220 and DeltatarO strains – OD600, teichoic acid synthesis inhibitors, primary screen (AID 463173)). Settings: S. aureus RN4220 wild type/DeltatarO growth, OD600, 18 h, active compounds read low, screened at 18.75 µg/mL (by protocol).

SMILES | survival
CCN1CCN(c2cc(C)c3cc(NC(=O)/C=C/c4ccc(C)cc4)ccc3n2)CC1 | inactive: 71%
COc1cccc(NC(=O)N(Cc2cn(C)c3ccccc23)C2CCCCCC2)c1 | active: 0%
Cc1ccc(C)n1-c1nnc(N2CCCC(C(=O)NCc3cccc(Br)c3)C2)s1 (stereo not drawn) | inactive: 131%
CC1CCCCN1C(=O)c1ccccc1NC(=O)c1ccco1 (stereo not drawn) | inactive: 106%
COCCNC(=O)CSc1nc(-c2ccccc2)[nH]c1-c1ccc(C)cc1 | inactive: 85%
COc1cc(CNc2ccc3[nH]c(=O)[nH]c3c2)cc(Br)c1OCc1ccccc1F | inactive: 90%
Cc1cccc(CN2CCN(CC(=O)Nc3c(C)cccc3C)S2(=O)=O)c1 | inactive: 134%
CC1=C(C(=O)NCc2ccc(Cl)cc2)C2(CCC(C)CC2)OC1=O (stereo not drawn) | inactive: 87%
NC1=NC(c2cc(F)cc(F)c2)n2c(nc3ccccc32)N1 (stereo not drawn) | inactive: 70%
Cc1ccc(Cl)cc1NC(=O)CC1Sc2ccccc2NC1=O (stereo not drawn) | inactive: 89%
COc1ccc(C(C(=O)NCc2ccccc2)N(Cc2ccco2)C(=O)c2cnccn2)cc1 (stereo not drawn) | inactive: 101%
Cc1ccc(CNC(=O)CCc2c(C)nc3c4c(C)cc(C)nc4nn3c2C)cc1 | inactive: 85%
NC(=O)CSc1oc(-c2cccs2)nc1S(=O)(=O)c1ccc(Br)cc1 | inactive: 152%
Cc1cccc(C(=O)Nc2ccc(C(=O)OCc3cc(=O)n4c(C)csc4n3)cc2)c1 | inactive: 121%
CCCCOc1cccc(C(=O)N(Cc2ccc(Br)o2)C2CCS(=O)(=O)C2)c1 (stereo not drawn) | inactive: 72%
Cc1ccc(NC(=O)CCn2cnc3ccccc3c2=O)cc1C | inactive: 100%
O=C(Nc1cccc(Cl)c1)C1CCN(S(=O)(=O)Cc2ccccc2)CC1 | inactive: 80%
O=C(c1cnc2c(c1)COc1ccccc1-2)c1ccccc1O | active: 5%
Cn1nc(-c2ccccc2F)c2cc(C(=O)Nc3cc(F)ccc3F)sc21 | inactive: 94%
Cc1ccccc1Cn1cc(CCC(=O)NCc2cccc(Br)c2)c2ccccc21 | inactive: 116%
O=C(Cn1c(=O)c(C(F)(F)F)nc2ccccc21)Nc1ccc(Br)cc1F | inactive: 66%
COc1ccc(S(=O)(=O)N2CCN(c3ccccc3)CC2)cc1-c1noc(C)n1 | inactive: 89%

SMILES | survival
COC(=O)c1ccc(NC(=O)N2CCN(c3nnc(C)c4c(C)n(-c5ccccc5)nc34)CC2)cc1 | inactive: 65%
CC(C)c1cnc2c(c1SCC(=O)c1ccccc1)c(=O)n(C)c(=O)n2C | inactive: 66%
O=C(NCc1ccccc1)c1ccc2c(c1)N(Cc1ccccc1)C(=O)c1ccccc1S2(=O)=O | inactive: 92%
COc1ccc(S(=O)(=O)NCC(c2ccco2)N2CCN(c3ccc(F)cc3)CC2)cc1 (stereo not drawn) | inactive: 66%
CC(C)(C)NC(=O)CSc1nc(-c2ccc(F)cc2)cc(C(F)(F)F)n1 | inactive: 78%
COc1ccc(Cc2nc3ccc(C(=O)NCCc4ccc(OC)c(OC)c4)cc3o2)cc1 | inactive: 68%
Cc1cc(C)cc(NC(c2nnc(-c3cccc(F)c3)o2)c2ccc(F)cc2Cl)c1 (stereo not drawn) | inactive: 37%
CCOC(=O)Cn1c(=O)n(C2CCCCC2)c2nc(-c3ccc(OC)cc3)nc(C(N)=O)c21 | inactive: 85%
CC(C)(C)n1cnc2cc(NS(=O)(=O)c3ccccc3)ccc21 | inactive: 112%
Cn1c(=O)n(C)c2cc(CNCc3ccccc3)ccc21 | inactive: 86%
Cc1cc(C)c(S(=O)(=O)Nc2cc(Cl)c3oc4c(c3c2)C(=O)CCC4)cc1C | inactive: 97%
Cc1ccc(CNS(=O)(=O)c2cc(Br)cc3c2N(C(=O)C2CC2)CC3)cc1 | inactive: 66%
Cc1ccc(Cn2c(=O)n(Cc3ccccc3)c(=O)c3c(C)c(C)sc32)cc1 | inactive: 83%
Cc1ccc(CNC(=O)C(=O)NCC(c2ccco2)S(=O)(=O)c2ccc(C)cc2)cc1 (stereo not drawn) | inactive: 80%
CCOc1ccc(C(=O)Nc2ccc(-c3nnc4n3CCCCC4)cc2)cc1OCC | inactive: 73%
Cc1cccc2c(=O)cc(CSCC(=O)Nc3ccc(Cl)cc3)[nH]c12 | inactive: 143%
CCCCNC(=O)CN1C(=O)c2c(c3ccccc3n2C)C1c1ccc(OC)cc1 (stereo not drawn) | inactive: 99%
CC(C)(C)C(=O)Nc1nc2nc(-c3ccccc3)cc(=O)n2[nH]1 | inactive: 83%
COc1ccc(Nc2nc(Nc3ccc(OC)cc3OC)nc(N3CCOCC3)n2)c(OC)c1 | inactive: 55%
Cc1ccc2oc(-c3cccc(NC(=O)c4ccc(N5CCC(C)CC5)c([N+](=O)[O-])c4)c3)nc2c1 | inactive: 136%
COc1cccc(/C=N/NC(=O)CSCc2ccccc2)c1O | inactive: 108%
COc1ccc(C2CC(=O)c3cc(-c4nc(-c5cccc([N+](=O)[O-])c5)cs4)c(=O)n(-c4ccc(F)cc4)c3C2)cc1 (stereo not drawn) | inactive: 76%

SMILES | survival
N/C(CN1CCCC1=O)=N\O | inactive: 114%
Cc1oc(-c2ccc(Cl)cc2)nc1CN1CCCC(C(=O)NCCc2ccccc2)C1 (stereo not drawn) | inactive: 29%
CCc1cccc(C)c1NC(=O)c1cc(S(=O)(=O)N2CCC3(CC2)OCCO3)ccc1F | inactive: 135%
Cc1ccc(S(=O)(=O)N2CCCc3cc(NS(=O)(=O)c4ccc(C)c(C)c4)ccc32)cc1 | inactive: 60%
CC(=O)c1ccc(NC(=O)CSc2c(C(C)C)cnc3c2c(=O)n(C)c(=O)n3C)cc1 | inactive: 94%
COC(=O)c1ccn(-c2nc(-c3ccc(Cl)cc3)cc(C(F)(F)F)n2)n1 | active: 9%
Cc1c(-c2nnc(SCC(=O)Nc3ccc(Br)cc3)o2)nnn1-c1ccc(F)cc1 | inactive: 80%
COc1ccc(C2(N3CCN(c4cccc(C)c4C)CC3)C(=O)c3ccccc3C2=O)cc1 | inactive: 91%
O=C(Cn1c(=O)n(Cc2ccc(C(=O)NCc3ccc4c(c3)OCO4)cc2)c(=O)c2ccccc21)Nc1ccc(F)cc1F | inactive: 111%
CCOc1ccc(CNCCSc2nnnn2C)cc1OC | inactive: 72%
O=C(CS(=O)(=O)c1cccc2nsnc12)N1CCN(c2ccccc2)CC1 | inactive: 119%
CCc1ccc2[nH]c(=O)c(C(c3nnnn3C(C)(C)C)N3CCc4ccccc43)cc2c1 (stereo not drawn) | inactive: 109%
COc1ccc(-c2nc(C)c(CCNS(=O)(=O)c3ccc(F)cc3)s2)cc1OC | inactive: 80%
CCCCNC(=O)C1CCN(c2nc3ccc(C)cc3[nH]2)CC1 | inactive: 63%
CC(C)c1ccc(CN(Cc2ccco2)c2cnc(S(C)(=O)=O)nc2C(=O)Nc2ccccc2)cc1 | inactive: 81%
COC(=O)c1ccccc1NC(=O)c1cn2c3c(ccc(Cl)c3c1=O)OC(C)C2 (stereo not drawn) | inactive: 72%
COc1cccc(C2C(C(=O)Nc3cccnc3)=C(C)Nc3nc(SCc4ccccc4)nn32)c1 (stereo not drawn) | inactive: 103%
Cc1nc2ccc(S(=O)(=O)CCC(=O)Nc3ccccc3C)cc2s1 | inactive: 94%
CCOC(=O)c1ccc(NC(=O)C2CCCN(c3ncnc4onc(C)c34)C2)cc1 (stereo not drawn) | inactive: 60%
Cc1ccc(NC(=O)Cn2c(=O)oc3cc(S(=O)(=O)N4CCCC4)ccc32)cc1F | inactive: 134%
CC1(C)Cc2nc3sc4c(N5CCOCC5)ncnc4c3cc2CO1 | inactive: 97%
COc1ccc(NC(=O)CSC2=Nc3ccccc3C3=NC(CCC(=O)NCc4ccco4)C(=O)N23)cc1 (stereo not drawn) | inactive: 60%

SMILES | survival
O=C(CC1NCCNC1=O)Nc1cccc(F)c1 (stereo not drawn) | inactive: 73%
Cc1ccc2ncc3c(-c4ccccc4)nn(CC(=O)NC4CCCCC4)c3c2c1 | inactive: 82%
COc1ccccc1N1CCN(CCCNC(=O)Cn2ncc3c([nH]c4ccccc43)c2=O)CC1 | inactive: 47%
CCc1ccc(CNc2nc3nc(C)c(Cc4ccccc4)c(=O)n3[nH]2)cc1 | inactive: 93%
CCc1ccc(-c2nc(SCC(=O)NCCOC)c(-c3ccc(C)cc3)[nH]2)cc1 | inactive: 88%
CCc1ccc(CN2CCc3nc(Nc4ccc5c(c4)OCCO5)ncc3C2)cc1 | inactive: 89%
COc1ccccc1CNC(=O)C(=O)NCC(c1ccc2c(c1)OCO2)N1CCOCC1 (stereo not drawn) | inactive: 74%
COc1ccc(CCNc2oc(COc3ccc(Cl)cc3)nc2C#N)cc1OC | inactive: 95%
CCc1ccc2nc(N3CCN(C(=O)c4ccco4)CC3)sc2c1 | inactive: 68%
CC(Sc1ccccc1)C(=O)N/N=C/c1cccnc1 (stereo not drawn) | inactive: 107%
COc1cccc(NC(=O)CSc2nncn2N)c1 | inactive: 111%
CC(=O)c1cccc(NC(=O)C2=CC(c3ccco3)=NS(=O)(=O)N2C)c1 | inactive: 87%
COc1ccc(Nc2nnc(-c3ccc(C)c(S(N)(=O)=O)c3)c3ccccc23)cc1 | inactive: 77%
CSc1nn(Cc2cccc(F)c2)c(N(C(C)=O)C(C)=O)c1S(=O)(=O)c1ccccc1 | inactive: 67%
O=C(CN1CCCCC1)N1CCCc2ccccc21 | inactive: 116%
CCc1cccc(C)c1NC(=O)c1cnn(-c2ccc(F)cc2)c1-n1cccc1 | inactive: 22%
CCOc1ccc(S(=O)(=O)Nc2ccc(-c3ccc(N4CCCC4)nn3)cc2)cc1 | inactive: 72%
Cc1cccc(S(=O)(=O)c2cn(Cc3ccccc3)c3cc(N4CCCC(C)C4)c(F)cc3c2=O)c1 (stereo not drawn) | inactive: 87%
Cc1cccc2sc(N3CCN(C(=O)c4ccco4)CC3)nc12 | inactive: 72%
Cc1cc(NC(=O)C2CCCN(S(=O)(=O)c3cccc4nonc34)C2)ccc1Br (stereo not drawn) | inactive: 92%
Clc1ccc(CSc2nc(NCCc3ccccc3)c3ccccc3n2)cc1 | inactive: 71%
CCC(=O)N1CCc2cc(S(=O)(=O)NC(CC(C)C)C(=O)Nc3ccc(CC)cc3)ccc21 (stereo not drawn) | inactive: 84%
